Results as given in PMC4336329 (PLoS ONE, 2015).
Screen size: about 310,000 compounds; about 2,200 (0.71%) showed an effect of 50% or more. Effects have a minus sign here. The list shows a part of the results.

The compounds below were run against human ether-à-go-go-related gene (hERG) potassium channel (human, UniProt Q12809) (assay: primary screen, population patch clamp on CHO cells stably expressing hERG).
Chain of human ether-à-go-go-related gene (hERG) potassium channel (Q12809 whole entry, looked up): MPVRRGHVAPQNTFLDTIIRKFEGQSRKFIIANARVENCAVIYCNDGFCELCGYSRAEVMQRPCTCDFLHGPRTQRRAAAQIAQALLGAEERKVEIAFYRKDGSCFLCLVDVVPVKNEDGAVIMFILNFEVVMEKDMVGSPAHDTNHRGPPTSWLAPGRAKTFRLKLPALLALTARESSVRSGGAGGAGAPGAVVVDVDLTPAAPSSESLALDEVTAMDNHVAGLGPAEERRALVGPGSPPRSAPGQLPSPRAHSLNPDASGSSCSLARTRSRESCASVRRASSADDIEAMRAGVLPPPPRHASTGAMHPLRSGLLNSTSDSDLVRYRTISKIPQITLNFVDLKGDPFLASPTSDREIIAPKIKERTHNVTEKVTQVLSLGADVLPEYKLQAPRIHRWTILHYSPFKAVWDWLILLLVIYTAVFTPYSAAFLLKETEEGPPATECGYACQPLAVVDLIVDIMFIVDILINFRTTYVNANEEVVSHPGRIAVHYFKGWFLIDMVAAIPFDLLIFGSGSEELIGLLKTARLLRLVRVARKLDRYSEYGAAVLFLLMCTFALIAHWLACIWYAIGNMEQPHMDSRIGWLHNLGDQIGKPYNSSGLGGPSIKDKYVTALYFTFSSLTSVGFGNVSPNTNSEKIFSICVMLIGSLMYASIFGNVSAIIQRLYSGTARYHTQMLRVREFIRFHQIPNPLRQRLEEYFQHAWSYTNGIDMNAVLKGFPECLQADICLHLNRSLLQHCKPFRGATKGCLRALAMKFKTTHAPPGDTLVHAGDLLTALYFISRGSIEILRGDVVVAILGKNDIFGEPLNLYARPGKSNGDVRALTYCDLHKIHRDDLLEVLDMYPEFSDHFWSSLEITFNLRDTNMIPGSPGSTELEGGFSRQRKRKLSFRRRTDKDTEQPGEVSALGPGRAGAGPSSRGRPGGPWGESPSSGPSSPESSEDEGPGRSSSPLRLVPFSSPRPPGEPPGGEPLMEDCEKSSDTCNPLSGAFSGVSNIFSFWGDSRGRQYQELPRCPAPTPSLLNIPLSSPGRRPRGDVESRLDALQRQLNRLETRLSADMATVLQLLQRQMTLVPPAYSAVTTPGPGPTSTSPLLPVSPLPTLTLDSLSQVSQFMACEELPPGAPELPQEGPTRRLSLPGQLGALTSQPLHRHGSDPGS

Row | SMILES | hERG current change (%, negative = inhibition) at 1uM [%]
1 | O=C(Cn1c(CC(=O)N2CCOCC2)nc2ccccc21)Nc1ccc2c(c1)OC(F)(F)O2 | 4.31
2 | O=C(NCCc1ccc(Cl)cc1)c1ccc2[nH]c(=O)c(=O)[nH]c2c1 | 11
3 | COC(=O)c1c(NC(=O)CSc2nnnn2-c2ccccc2)sc2c1CCC(C)C2 (stereo not shown) | 13.1
4 | NS(=O)(=O)c1ccc(NC(=O)COC(=O)CCC2CCCCC2)cc1 | 2.15
5 | Cc1cc(C)cc(NC(=S)N2CCCC2)c1 | 16.2
6 | O=C(O)C1CCCN1S(=O)(=O)c1ccc(Br)s1.O=C(O)[C@@H]1CCCN1 (stereo not shown) | 12.4
7 | CN(C(=O)COC(=O)c1cc2ccccc2cc1O)c1c(N)n(Cc2ccccc2)c(=O)[nH]c1=O | -1.89
8 | CCC1(c2ccccc2)NC(=O)N(CC(=O)Nc2nnc(C3CC3)s2)C1=O (stereo not shown) | 8.22
9 | OC1C2(Cc3ccccc3)CN3CCN(C2)CC1(Cc1ccccc1)C3 (stereo not shown) | 11.5
10 | COc1ccc(CC(=O)Nc2ccc(S(=O)(=O)NC(C)C)cc2)cc1 | 0.227
11 | O=C(CSCC(=O)N1CCCCC1)Nc1nc(-c2ccccc2)c(-c2ccccc2)s1 | 16.5
12 | Cc1ccc2c(CC(=O)N(C)c3c(N)n(Cc4ccccc4)c(=O)[nH]c3=O)coc2c1 | 8.06
13 | Cn1c(=O)oc2cc(S(=O)(=O)N3CCCC(C(=O)Nc4ccccn4)C3)ccc21 (stereo not shown) | 5.85
14 | Cc1nn(C)cc1CNC(=O)c1cccc(Br)c1 | 5.11
15 | CCOC(=O)CSc1ccc(S(=O)(=O)N2CCC(C)CC2)cc1[N+](=O)[O-] | 11.9
16 | CC(CN1C(C)CCCC1C)OC(=O)c1ccc(Cl)cc1Cl (stereo not shown) | -8.9
17 | O=C(Nc1nncs1)C1(c2ccccc2)CCCC1 | 4.19
18 | O=C(NCCc1ccccc1)C(=O)NCC1CCNCC1 | 0.917
19 | Cc1ccccc1-n1c(=O)cc(N2CCN(Cc3ccccc3)CC2)[nH]c1=O | 8.64
20 | CCC(CC)N1CCN(CCc2ccccc2)C(CCO)C1 (stereo not shown) | 6.29
21 | Cc1onc(-c2ccccc2Cl)c1C(=O)O/N=C(\N)c1ccc([N+](=O)[O-])o1 | -11.2
22 | CCN1C(=O)C(=O)N(Cc2ccc(OC)c(F)c2)C1=O | 9.94

Row | SMILES | hERG current change (%, negative = inhibition) at 1uM [%]
23 | O=C(Nc1ccc(F)cc1)Nc1nnc(Cc2ccccc2)s1 | 13.5
24 | Cc1sc2nc(C3CC3)nc(N3CCN(C(=O)c4ccc(F)cc4)CC3)c2c1C.Cl | 1.1
25 | Cn1c(=O)c2ccccc2n2c(CCl)nnc12 | 7.44
26 | Cc1c(CN2CCCC(C(=O)Nc3cccc(-n4cccn4)c3)C2)cnn1C (stereo not shown) | 11.7
27 | CCCCSC1(SCCCC)N=C(N)C2(C#N)C(c3ccccc3)NC(C)=CC12C#N (stereo not shown) | 7.48
28 | O=P(O)(O)C12CC3CC(CC(C3)C1)C2 | 7.66
29 | O=C(C[n+]1cc(-c2ccccc2)n2c1CCCCC2)c1ccc(Cl)cc1.[Br-] | 0.871
30 | CC1(C)CC(=O)C(C=Nc2ccc(O)c(N=CC3=C(O)CC(C)(C)CC3=O)c2)=C(O)C1 | 4.95
31 | NC(=O)c1ccc(NC(=O)c2cncn2-c2ccccc2)cc1 | 17.7
32 | COc1ccc(OC)c(NC(=O)CSc2nnc(-c3cccnc3)s2)c1 | 0.389
33 | CCN(CC)Cc1c(C(=O)N/N=C/c2ccc(C)o2)nnn1-c1nonc1N | -0.651
34 | Br.C=CCn1c(=N)n(CC(=O)c2ccc(Cl)cc2)c2ccccc21 | -0.66
35 | COc1ccc(-c2nnn(CC(=O)Nc3ccc4c(c3)OCCO4)n2)cc1OC | 10.5
36 | Cc1ccc(NC(=S)NCc2cccn2C)cc1 | -2.66
37 | COCCn1nnnc1C(c1cc2cc(C)ccc2[nH]c1=O)N1CCN(C2CCCCC2)CC1 (stereo not shown) | -5.14
38 | CCCc1cc(=O)oc2cc(C)c3c(C)coc3c12 | 11.8
39 | CCOC(=O)C(=CNc1ccc(Oc2cccnc2)nc1)C(=O)OCC | 7.04
40 | CC1(C)O[C@@H]2C[C@H]3[C@@H]4C[C@H](F)C5=CC(=O)C=C[C@]5(C)[C@H]4[C@@H](O)C[C@]3(C)[C@]2(C(=O)CO)O1 | 16.5
41 | COc1ccc(S(=O)(=O)N(C)c2ccc(C(=O)NCc3ccncc3)cc2)cc1 | -2.09
42 | CC(C)C(=O)NNC(=O)CSc1nc(C2CCCCC2)nc2ccccc12 | 6.83
43 | Cc1cccc(NC(=O)c2ccc(COc3ccc4ccccc4c3)o2)n1 | 3.29
44 | Cc1ccccc1NC(=O)CN1C(=O)CSc2ccc(S(=O)(=O)N3CCCC3)cc21 | 14.4

Row | SMILES | hERG current change (%, negative = inhibition) at 1uM [%]
45 | O=C(Nc1ccccc1)C1CCCN(C(=O)c2ccc(F)cc2)C1 (stereo not shown) | -6.42
46 | COCc1cc(=O)[nH]c(SCC(=O)Nc2ccccc2)n1 | 4.15
47 | CC(C)CCNC(=O)CCCOc1ccccc1 | -1.8
48 | COc1ccc(NC(=O)c2ccc(OC(F)F)cc2)cc1Cl | 6.28
49 | COc1cccc(C=Nc2cc(C)on2)c1O | 10.1
50 | COc1ccccc1C1C2=C(CC(C)(C)CC2=O)N(CC(=O)O)C2=C1C(=O)CC(C)(C)C2 | 19.2
51 | Cc1cc(C)nc(N/C(=N\S(=O)(=O)Cc2ccccc2)Nc2ccccc2Br)n1 | 12.2
52 | COc1ccc(N2CCN(C(=O)CC34CC5CC(CC(C5)C3)C4)CC2)c([N+](=O)[O-])c1 | 10.3
53 | Cn1c(=O)c2sccc2n2c(CCCC(=O)Nc3ccccc3)nnc12 | 11.7
54 | O=C(CCN=C1NS(=O)(=O)c2ccccc21)OCc1nnc(-c2ccccc2)o1 | 18.4
55 | CCOC(=O)C1=C(COC(=O)CNC(=O)c2cccc(C)c2)NC(=O)NC1C (stereo not shown) | 6.58
56 | C=CCOc1ccc(Br)cc1CNC(C)(C)C.Cl | 6.36
57 | Cc1ccc(C)c(NC(=O)CN(C)C(=O)/C=C/c2ccco2)c1 | 12.2
58 | S=C(c1cccs1)N1CCCC1 | 13.8
59 | CCCCc1n(CC(=O)c2ccc(Cl)cc2)c2ccccc2[n+]1C.[Br-] | 10.7
60 | C=CCn1c(-c2csc3ccccc23)n[nH]c1=S | 14.6
61 | COc1cc(C)nc(NCc2ccccc2)n1 | 15.8
62 | COc1ccccc1N1CCN(S(=O)(=O)c2c(C(=O)N3CCOCC3)c(C)n(C)c2C)CC1 | 14.6
63 | COc1ccc(C)cc1S(=O)(=O)N(C)CC(=O)Nc1ccc2c(c1)OCCO2 | 5.96
64 | Clc1ccc(C2N3CCCN23)c(Cl)c1 (stereo not shown) | 18
65 | C(=N\Nc1nc(N2CCOCC2)nc(N2CCOCC2)n1)/c1cccnc1 | -0.665
66 | COc1ccc(N(CC(=O)Nc2ccc(S(=O)(=O)N3CCCC3)cc2)S(C)(=O)=O)cc1OC | 5.38

Row | SMILES | hERG current change (%, negative = inhibition) at 1uM [%]
67 | CC1CC(C)(C)Nc2ccc(OC(=O)c3ccco3)cc21 (stereo not shown) | 14.7
68 | CC(C)(C)OC(=O)NNC(=O)NC12CC3CC(CC(C3)C1)C2 | 4.29
69 | Cc1cccc(N=Cc2cc3c(cc2[N+](=O)[O-])OCO3)c1 | 9.6
70 | O=S(=O)(c1ccccc1)c1cc(O)ccc1O | 9.5
71 | O=C1COc2ccc(S(=O)(=O)CCC(=O)N3CCN(c4cccc(Cl)c4)CC3)cc2N1 | 8.02
72 | O=C(NCCN1CCN(c2cccc(Cl)c2)CC1)Nc1ccccc1 | -1.13
73 | O=C(CNC(=O)c1ccccc1)NCCc1ccc(O)c(O)c1 | 9.02
74 | NC(=O)NC(=O)CN1C(=O)NC(c2ccccc2)(c2ccccc2)C1=O | 22.1
75 | O=C(CCCCn1c(=O)[nH]c2ccsc2c1=O)NCC1CCCO1 (stereo not shown) | 11.6
76 | CS(=O)(=O)N(CC(=O)N1CCN(Cc2ccccc2)CC1)c1ccc(F)cc1 | 6.89
77 | Cc1ccc2[nH]c(=O)c3cc(C(=O)N(C)c4ccccc4C)sc3c2c1 | 9.58
78 | O=C(Cn1cnc2ccccc2c1=O)NCCC(=O)Nc1ccccc1C(F)(F)F | 15.9
79 | CC(C)Cn1c(Br)nc2c1c(=O)n(CCC#N)c(=O)n2C | -15.9
80 | CCc1ccc(CN2C(=O)c3ccccc3C2C(=O)NCC2CCCO2)cc1 (stereo not shown) | 8.44
81 | O=C1/C(=C\c2ccccc2)C2OCC=C3CN4CCC56c7ccccc7N1C5C2C3CC46 (stereo not shown) | -6.15
82 | COc1ccc(NC(=O)NNC(=O)c2ccccc2-n2cccc2)cc1OC | 4.18
83 | Cc1cc(N)n(-c2ccc(C(=O)O)cc2)n1.Cl | 5.84
84 | Cc1cc(NS(=O)(=O)c2ccc(C3CCCCC3)cc2)no1 | 16.5
85 | COC(=O)C(CC(=O)c1cccc(OC)c1)c1ccc(F)cc1 (stereo not shown) | 14.8
86 | Br.N=c1n(CC(=O)O)c2ccccc2n1Cc1ccccc1Cl | 7.86
87 | COCCNC(=S)Nc1cc(OC)c(NC(=O)c2ccco2)cc1OC | 4.64
88 | Cc1c(/C=N/NC(=O)c2cccnc2)c2ccccc2n1Cc1ccccc1 | 13
